The record followed here is ChEMBL document CHEMBL1201862, “PubChem BioAssay data set” (2004).

SMILES strings stand for the structures.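 Five compound concentrations were applied to cells in 96-well plates for 48 hours; endpoints were derived by simple linear interpolation of the resulting dose-response curve. GI50 marks 50% less growth.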 Calls of active or inactive are those of the source. Rule as the data show it: active = GI50 up to about 1.1 µM and inactive = higher.

For this assay, the system named is NCI-H322M. Description: inhibition of tumour cell growth, NCI panel, 48 h.
In the case of `N=C(N)NCCCC(NCc1c2ccccc2nc2ccccc12)C(=O)O` (centres undefined), the GI50 was inactive: > 70.1 µM. For the compound `CC1=C2C(O)C(C(C)C(=O)N(C)C)CCC2(C)C=CC1=O` (centres undefined), the GI50 is inactive: > 100 µM. For the compound `CCn1c2nc(=O)n(CCCCCCCCSC(c3ccccc3)(c3ccccc3)c3ccccc3)c(=O)c-2nc2ccccc21`, the GI50 was inactive: 14.8 µM. With `Nc1ccc(Cc2c(N)[nH]c(=O)[nH]c2=O)cc1` the figure was inactive: > 100 µM; with `CC1=C(C(=O)Nc2ccc(Cl)c(Cl)c2)C(c2ccco2)C(C(=O)Nc2ccc(Cl)c(Cl)c2)=C(C)N1`, inactive: 12.5 µM; with `CN(C)c1ccc(/C=C(\C#N)c2nc(-c3cc4ccccc4oc3=O)cs2)cc1`, inactive: > 50 µM. As to `CC(=O)OC1COC(N2C(=O)C(=O)c3cc(Br)ccc32)C(OC(C)=O)C1OC(C)=O` (centres undefined), the GI50 is inactive: > 100 µM. `COCCOCOC(CCCCO)c1cc(C)c(O[Si](C)(C)C(C)(C)C)c(C)c1` (centres undefined): the GI50 was inactive: 13.8 µM. The value for `COc1ccc(/C=C2\CCC(CN3CCOCC3)C2=O)cc1` (centres undefined) was inactive: 17.1 µM. As to `CC(=O)Oc1cccc2c1C(=O)CCCC2`, the GI50 is inactive: > 100 µM. In the case of `CC1=C(C(=O)Nc2ccc(C)cc2)C(c2cccc([N+](=O)[O-])c2)C(C(=O)Nc2ccc(C)cc2)=C(C)N1`, the GI50 was inactive: 37.8 µM. `Cc1cc(NS(=O)(=O)c2ccc(Nc3c4ccccc4nc4c(C(=O)NCCN(C)C)ccc(Cl)c34)cc2)no1`: the GI50 was inactive: 4.66 µM.

As for `COc1c(OC)c(OC)c2c(=O)c(OC)c(-c3ccc4c(c3)OCO4)oc2c1OC`, the GI50 is inactive: > 100 µM. In the case of `N#Cc1ccccc1NC(=O)C(=O)C(C(=O)c1ccccc1F)C1OC(=O)c2ccccc21` (centres undefined), the GI50 was inactive: 36.9 µM.

As to `Nc1nc(SCCc2ccccc2)nc2nc3c(c(-c4ccccc4)c12)CCCC3`, the GI50 is inactive: > 100 µM. The value for `CCN(CC)S(=O)(=O)c1ccc2[nH]c(NC(=O)OC)nc2c1` was inactive: > 100 µM; that for `O=c1cc2ccccc2nn1-c1ccccc1Cl` was inactive: 84.7 µM. `NNC(=O)N/N=C(/CC1(O)C(=O)Nc2ccc(Br)cc21)c1ccccc1` (centres undefined): the GI50 was inactive: 33.6 µM.

Consider `OCCCCn1cc(Cn2ncc3c(O)ncnc32)nn1`, for which the GI50 was inactive: > 100 µM.

`CCCC1C[C@H]2CCCCN2[C@H]2CCCN12` (some centres undefined): the GI50 is inactive: > 100 µM. The value for `c1ccc(-c2cc(-c3cccs3)c(-c3cccs3)s2)cc1` was inactive: > 100 µM. On to `COc1cc2c3cc1Oc1c(O)c(OC)cc4c1C(Cc1ccc(O)c(c1)Oc1ccc(cc1)CC3N(C)CC2)N(C)CC4` (centres undefined), for which the GI50 was inactive: 17.2 µM.

With `COc1ccc(CC#N)c(OCc2ccccc2)c1`, the GI50 was inactive: 5.35 µM. Take `CSC1=Nc2ccccc2N=C(c2ccc(Cl)cc2)C1`: the GI50 was inactive: 25.2 µM. As for `COC(=O)c1cc2ccc(O)c(O)c2cn1`, the GI50 is inactive: > 10 µM. As for `COc1ccc(C(c2cc(OC)c(OC)c(OC)c2)N2C(=O)CCC2C(=O)O)cc1` (centres undefined), the GI50 is inactive: 43.3 µM. As for `O=C(O)CCCC#CCCCC(=O)O`, the GI50 is inactive: > 100 µM.

With `COc1ccc2[nH]cc(CCNC(=O)[C@](O)(Cc3cn(C)c4ccccc34)[C@@]3(O)OCC(O)C3O)c2c1` (some centres undefined), the GI50 was inactive: > 100 µM.

For the compound `Cc1ccc(S(=O)(=O)NNC2Oc3cc4c(cc3C(c3ccccc3O)C2C)OCO4)cc1` (centres undefined), the GI50 is inactive: 15.7 µM. With `CC[As](CC)SCC1OC(OC(C)=O)C(OC(C)=O)C(OC(C)=O)C1OC(C)=O` (centres undefined) the figure was inactive: 19.1 µM; with `O=C(c1cc2c(c3ccccc13)NCCN=C2C(F)(F)F)C(F)(F)F`, inactive: 32.5 µM; with `COc1cc(Cl)cc(O)c(=O)c1OC`, inactive: 45 µM. On to `CNC(=O)N1N[C@H](c2ccccc2)[C@@H]1c1ccccc1.OB(O)O`, for which the GI50 is inactive: 30.3 µM.

For `Cc1c(C)c(S(=O)(=O)N(CCCCCCN)OCCCN)c(C)c2c1OC(C)(C)CC2`, the GI50 is inactive: 6.7 µM. For `N=C(N)NCCCC(Nc1c2ccccc2[n+]([O-])c2ccccc12)C(=O)O` (centres undefined), the GI50 was inactive: > 100 µM. For the compound `C=C1c2nc3ccccc3n2C=C(c2ccc(OC)cc2)N1c1ccc(OCCN2CCCCC2)cc1`, the GI50 was inactive: 20.2 µM. As for `Cc1cccc(C)c1NC(=O)CCc1n[nH]c(=S)o1`, the GI50 is inactive: > 100 µM. The value for `O=C1C(Cl)=CC2(C=C1Cl)CCNC1=C2C(=O)c2nc[nH]c2C1=O` was inactive: 46.7 µM; that for `C#CCCOC1(OC)N=NC(C)(C)O1` (centres undefined) was inactive: > 100 µM.

On to `COC(=O)/C=C1\C(=O)C=C2[C@@H]3C[C@H]4C[C@H](CC[C@@]4(C)N21)C3(C)NC(C)=O` (some centres undefined), for which the GI50 is inactive: 20.3 µM. With `CCOC(=O)C(=O)C(/C(=N/N(C)C)C(=O)Nc1ccc(C)cc1C)c1nc2ccccc2nc1O` (centres undefined), the GI50 was inactive: > 100 µM. For the compound `CN(CCCNC(=O)c1nn(-c2ccccc2)c2c1Cc1ccccc1-2)CCCNC(=O)c1nn(-c2ccccc2)c2c1Cc1ccccc1-2`, the GI50 is inactive: 1.77 µM. In the case of `Nc1nc(N)c2cc(CNc3ccc(C(=O)NC(CC(=O)O)C(=O)O)c(Cl)c3)ccc2n1` (centres undefined), the GI50 was active: 0.0805 µM. Regarding `O=C(C=P(c1ccccc1)(c1ccccc1)c1ccccc1)CC(=S)CC(=O)C=P(c1ccccc1)(c1ccccc1)c1ccccc1`, the GI50 was inactive: 8.81 µM. With `COc1cc(/C=N/n2c(C)n[nH]c2=O)cc(OC)c1OC` the figure was inactive: > 100 µM; with `CSc1nc(NC2OC(COC(C)=O)C(OC(C)=O)C(OC(C)=O)C2OC(C)=O)c2c(n1)OCC2=O` (centres undefined), inactive: > 100 µM; with `c1cc(-c2ccc(Oc3ccc(-c4ccncc4)cc3)cc2)ccn1`, inactive: 23.8 µM.

For `CC(=O)Nc1ccc(C2C(C(=O)Nc3ccccc3C)=C(C)NC(C)=C2C(=O)Nc2ccccc2C)cc1`, the GI50 is inactive: > 38.2 µM. In the case of `CN(CC(=O)O)c1ncc2c(n1)-c1ccccc1CC2`, the GI50 was inactive: > 100 µM.

As for `Fc1ccc(C2SCc3nc4ccccc4n32)cc1F` (centres undefined), the GI50 was inactive: 54 µM. For `CC(C)(C)N1CC1CNC(=O)C(=O)NCC1CN1C(C)(C)C` (centres undefined), the GI50 is inactive: 5.19 µM. On to `COC(NC(N)=O)C(=O)O` (centres undefined), for which the GI50 was inactive: > 100 µM. In the case of `Cc1ccc(/C=C/C(=O)c2ccc(Cl)c(Cl)c2)cc1`, the GI50 is inactive: > 100 µM. In the case of `N#Cc1nc(C2SCCCS2)oc1N`, the GI50 is inactive: > 100 µM.

As to `CCOC(=O)c1sc2nc(SC)nc3c2c1NCN3c1ccc(F)c(F)c1`, the GI50 was inactive: > 23.7 µM.

For the compound `CCNCCCCNCC`, the GI50 is inactive: > 3750 µM. `O=c1[nH]cnc2c1ncn2[C@@H]1C[C@@H]1CO`: the GI50 was inactive: > 100 µM. `O=C1c2c[nH]nc2C(c2ccccc2)N1c1ccccc1` (centres undefined): the GI50 was inactive: > 10 µM.

For the compound `Cc1cc(C)nc(NS(=O)(=O)c2ccc(Nc3c4ccccc4nc4c(C(=O)Nc5ccc(S(=O)(=O)N=C(N)N)cc5)cccc34)cc2)n1`, the GI50 is inactive: 40.7 µM. In the case of `CCOC(=O)C(=O)Nc1ccccc1C(F)(F)F`, the GI50 was inactive: > 100 µM.

Consider `O=C(O)CC/C(=N\Nc1nsc2ccccc12)c1ccccc1`, for which the GI50 was inactive: 88.3 µM. Consider `COc1cc(C2c3cc4c(cc3OC(N3CCOCC3)C2C)OCO4)cc(OC)c1O` (centres undefined), for which the GI50 was inactive: 24 µM. On to `CC(C)C12Cc3c(ccc4ccccc34)OC1(C)Oc1ccc3ccccc3c1C2` (centres undefined), for which the GI50 was inactive: > 100 µM. Turning to `COC(=O)c1ccccc1NC(=O)C(=O)Cc1nc2c3c(ccc2nc1O)C(=O)c1ccccc1C3=O`, the GI50 is inactive: 11.2 µM. `CCOC(=O)c1c(N2CCCC2)ncn(C)c1=S`: the GI50 is inactive: > 100 µM. `CCCCC1Nc2ccccc2-c2ccnc(Cl)c21` (centres undefined): the GI50 is inactive: 26.5 µM.

`CC(C)OC(=O)C1Cc2c([nH]c3ccccc23)C(c2ccccc2)N1` (centres undefined): the GI50 was inactive: > 100 µM. With `COc1ccc(-c2cc(-c3ccc(Nc4ccnc5cc(Cl)ccc45)cc3)nc(N)c2C#N)c2ccccc12`, the GI50 was inactive: > 100 µM. With `CC1(/C=C/CCSc2ccccc2)CC(=O)C2CC1C2(C)C` (centres undefined) the figure was inactive: 78.2 µM; with `Cc1cc2nn(C3CCCCO3)nc2cc1C` (centres undefined), inactive: > 100 µM; with `COc1ccc2nc3cc(Cl)ccc3c(Sc3ccc([N+](=O)[O-])cc3C)c2c1`, inactive: > 100 µM. Regarding `CC12C(=O)CC(CC1=O)C2(C)C`, the GI50 was inactive: > 100 µM. Consider `Cc1ccc(NC(=O)CCC(=O)C2CC(=O)CC/C2=N\NC(=O)c2cc3ccccc3cc2O)cc1C` (centres undefined), for which the GI50 was inactive: 31.4 µM.

With `Cc1ccc(/N=N\c2c(O)ccc3cc(S(=O)(=O)O)ccc23)cc1`, the GI50 is inactive: > 100 µM. With `CCOC(=O)Nc1ccc(S(=O)(=O)OC)cc1.CCOC(=O)Nc1ccc(S(=O)(=O)OC)cc1.Cc1cn(C2CC(O)C(CO)O2)c(=O)[nH]c1=O`, the GI50 is inactive: > 100 µM. Consider `CC1(C)CCC[C@@]2(C)C1CC[C@H]1CC(O)C3(C)CCC12C3` (some centres undefined), for which the GI50 is inactive: 17.5 µM.

`CC1C=CC(C)C2(O)C(=O)NC(O)C12` (centres undefined): the GI50 is inactive: > 100 µM. With `COc1cc(/C=C/c2ccc(S(N)(=O)=O)cc2)cc(OC)c1`, the GI50 was inactive: 26.3 µM. For the compound `NC(=O)C1=C(c2ccccc2)c2ccccc2C1=O`, the GI50 was inactive: 23 µM. With `CN1C(=O)C2C(C1=O)C1(O)c3ccccc3C2(N)c2ccccc21` (centres undefined), the GI50 was inactive: > 100 µM.

In the case of `CN(C)CCOc1ccc2[nH]c(C(=O)N3CC(CCl)c4ccc(N)cc43)cc2c1` (centres undefined), the GI50 was active: 0.137 µM. With `COc1cc2c(cc1OC)C(=O)/C(=C/c1cc(Cl)cc(Cl)c1)C2` the figure was inactive: 24.6 µM.

As for `CC(O)c1cc2c(s1)C(=O)c1scc(C(C)O)c1C2=O` (centres undefined), the GI50 was inactive: 1.7 µM. Regarding `O=c1cc(N2CCNCC2)nc2ccccn12`, the GI50 is inactive: > 100 µM.
